Laboratory results taken from PubChem BioAssay AID1745853 (National Center for Advancing Translational Sciences (NCATS), 2022).
Some of the results follow. These are further read-outs of the screen, such as a control signal, another cell line or another target. No call is given for them.

Columns and labels:
Assay in all cases: Primary Screen for Target Class Profiling of Small Molecule Inhibitors of Methyltransferases
[1] = target: Glycine N-methyltransferase (Homo sapiens) (UniProt Q14749); settings: purified enzyme, MTase-Glo SAH luminescence; measured here: GNMT inhibition; at 40 µM; stronger effect = lower value
Excerpt: (§1) PI: Matthew D. Hall Ph.D. and Quinlin M. Hanson Ph.D.
(§2) National Center for Advancing Translational Sciences (NCATS)
(§3) National Institute of Health (NIH), Rockville, MD
(§4) Target class profiling (TCP) is a chemical biology approach amenable to investigating understudied biological targets. TCP is achieved by developing a generalizable assay platform and applying it to screen a curated set of compound libraries against representative members of a target class. Small molecule methyltransferases (SMMTase) are a subclass of methyltransferase that act on metabolites to modulate signaling pathways, metabolize xenobiotics, or balance the available methyl pool. We screened four curated libraries totaling 27,574 unique compounds against the SMMTases nicotinamide N-methyltransferase (NNMT), phenylethanolamine N-methyltransferase (PNMT), histamine N-methyltransferase (HNMT), glycine N-methyltransferase (GNMT), catechol O-methyltransferase (COMT), and guanidinoacetate N-methyltransferase (GAMT). The data generated by this TCP can be leveraged for informed tool molecule development. For example, in the associated publication we identified a chemotype of HNMT-selective inhibitors. Additionally, we identified a putative SMMTase-selective inhibitor with potential as a tool molecule for studying broader methyltransferase biology.
(§5) High-through put screening assays were developed at the National Center for Advancing Translational Science (NCATS) for the enzymes NNMT, PNMT, HNMT, GNMT, COMT, and GAMT. Enzymatic activity was measured as a function of SAM cofactor conversion using the MTase Glo kit (Promega) for all enzymes. All assays were performed in 1536-well format with substrates and SAM concentrations at KM values. Enzyme concentration and assay timing were optimized for 10-20% SAM conversion. Initial screening of 27,574 compounds was done as single-point assays using the highest compound concentration (40 uM). […] These compounds were replated in 11-point dose response and assayed against NNMT, PNMT, HNMT, GNMT, COMT, GAMT, and a counter-assay. The IC50 and efficacy (maximal response) values were determined for each dose-response curve. These values are also accounted for in the area under the curve (AUC) values.
(§6) PROTOCOL TABLE (as described by Inglese J, Shamu CE and Guy RK. 2007)
(§7) SEQUENCE No. (e.g., 1, 2, 3, etc.); […] (e.g., Cells, Incubation, Reagent, etc.); VALUE; DESCRIPTION.
(§8) 1; Reagent; 2 uL; SMMTase Enzyme (2x) in reaction buffer, columns 1- 48.
(§9) 2; Reagent; 1 uL; SAM (4x) in reaction buffer, columns 1-48.
(§10) 3; Controls; 23 nL; DMSO in column 4; sinefungin in DMSO (0 uM - 40 uM) in 7-point 1:2 dilution series (n = 2) in column 2.
(§11) 4; Compounds; 23 nL; Columns 5-48.
(§12) 5; Reagent; 1 uL; Substrate (4x) in reaction buffer, columns 2-48.
(§13) 6; Time; 20-30 min; Incubation.
(§14) 7; Reagent; 1 uL; MTase-Glo reagent (5X), columns 1-48.
(§15) 8; Time; 30 min; Incubation.
(§16) 9; Reagent; 5 uL; MTase-Glo Detection reagent, columns 1-48.
(§17) 10; Time; 30 min; Incubation, luminescence evolution.
(§18) 11; Detection; Luminescence; ViewLux uHTS Microplate Imager (PerkinElmer).
(§19) NOTES (numbers refer to Sequence numbers above)
(§20) 1, 2, 5. White Medium Binding Greiner 1536-well plates (Cat #789175-F, Greiner Bio-One, Monroe, NC); Reaction buffer: 50 mM Tris, pH 8.0, 3 mM MgCl2, 1 mM EDTA, 50 mM NaCl, 1 mM DTT, and 0.1 mg/mL BSA. Evaporation was prevented by covering assay plates with metal lids containing holes to allow gas diffusion.
(§21) 1. Six SMMTase were profiled: HNMT, GNMT, PNMT, COMT, NNMT, GAMT
(§22) 5. The corresponding substrate was used for each enzyme: HNMT - 5.3 uM Histamine; GNMT - >500 uM Glycine; PNMT - 16.2 uM Norephinephrine; COMT - 13.7 uM Norephinephrine; NNMT - 3.8 uM Nicotinamide; GAMT - 2.5 uM Guanidinoacetate.6, 8, 10. Room temperature
(§23) 6. Final reaction conditions: 10 nM COMT, 5 uM SAM, 15 uM norepinephrine, 50 mM Tris, pH 8.0, 3 mM MgCl2, 1 mM EDTA, 50 mM NaCl, 1 mM DTT, and 0.1 mg/mL BSA; refer to tables 2 and S1 for specific timing.
8. […]

[2] = target: Guanidinoacetate N-methyltransferase (Homo sapiens) (UniProt Q14353); settings: purified enzyme, MTase-Glo SAH luminescence; measured here: GAMT inhibition; at 40 µM; stronger effect = lower value
Excerpt: as §1, §2, §3, §4, §5, §6, §7, §8, §9, §10, §11, §12, §13, §14, §15, §16, §17, §18, §19, §20, §21, §22, §23
8. […]

[3] = target: Histamine N-methyltransferase (Homo sapiens) (UniProt P50135); settings: purified enzyme, MTase-Glo SAH luminescence; measured here: HNMT inhibition; at 40 µM; stronger effect = lower value
Excerpt: as §1, §2, §3, §4, §5, §6, §7, §8, §9, §10, §11, §12, §13, §14, §15, §16, §17, §18, §19, §20, §21, §22, §23
8. […]

[4] = target: Nicotinamide N-methyltransferase (Homo sapiens) (UniProt P40261); settings: purified enzyme, MTase-Glo SAH luminescence; measured here: NNMT inhibition; at 40 µM; stronger effect = lower value
Excerpt: as §1, §2, §3, §4, §5, §6, §7, §8, §9, §10, §11, §12, §13, §14, §15, §16, §17, §18, §19, §20, §21, §22, §23
8. […]

[5] = target: Phenylethanolamine N-methyltransferase (Homo sapiens) (UniProt P11086); settings: purified enzyme, MTase-Glo SAH luminescence; measured here: PNMT inhibition; at 40 µM; stronger effect = lower value
Excerpt: as §1, §2, §3, §4, §5, §6, §7, §8, §9, §10, §11, §12, §13, §14, §15, §16, §17, §18, §19, §20, §21, §22, §23
8. […]
% is scaled to controls: 0 for no effect and ±100 for the full control effect.

Compound | activity change, negative = inhibition [1] [%] | activity change, negative = inhibition [2] [%] | activity change, negative = inhibition [3] [%] | activity change, negative = inhibition [4] [%] | activity change, negative = inhibition [5] [%]
O=C(NC1CCCC1)C1c2cccn2CC(=O)N1c1cccc(Cl)c1 (centres undefined) | 12.5 | 0 | 9.06 | 1.78 | 1.78
CN1CCOC[C@H]2CCN(C(=O)c3cccc4[nH]ccc34)C[C@H]21 | -4.07 | -4.63 | -4.17 | -5.56 | -4.69
COc1ccccc1C(=O)N1CCC(C(=O)N2CCC(c3nc4ncccc4[nH]3)C2)CC1 (centres undefined) | -3.77 | -8.38 | -2.98 | -15.8 | -11.2
Cc1ccc(C(=O)Cn2nc3n(C(C)C)c(=O)c4ccc(C(=O)NC5CCCC5)cc4n3c2=O)c(C)c1 | -2.03 | -5.5 | 1.84 | -4.16 | -4.99
CC(C)(C)C(=O)NCCNC(=O)c1cccc(-c2ccc(C(F)(F)F)cc2)c1 | -2 | 0.332 | 2.58 | -11.6 | 1.45
CC1CCN(S(=O)(=O)c2ccc3c(ccn3CCC(=O)NC(C)C)c2)CC1 | 1.4 | 5.26 | -2.47 | 0.633 | -0.702
C[C@@]12C[C@]3(O)O[C@H](O1)[C@]1(COC(=O)c4ccccc4)[C@H]3C[C@@]12O[C@@H]1O[C@H](CO)[C@@H](O)[C@H](O)[C@H]1O | 6.21 | 5.2 | 13.4 | -7.09 | 6.3
COCCCN1C(=O)c2cc3sccc3n2CC1(C)C(=O)NC1CCCCCCC1 (centres undefined) | 4.58 | 0.248 | 8.85 | 4.08 | 5.81
CC(C)n1cc(C(=O)NCc2cccnc2Oc2ccc(F)cc2F)cn1 | -5.44 | -7.54 | -2.19 | -6.87 | 1.67
Nc1nc(CC(=O)Nc2ccc(CCNC[C@H](O)c3ccccc3)cc2)cs1 |  | -3.11 |  | -33.4 | -21.1
Cc1cc(Nc2cccc(Cl)c2)nc2ccc(NC(=O)Cc3cccc(C(F)(F)F)c3)cc12 |  | -25.9 |  | -29.1 | -5.03
CC[C@]1(O)C[C@H]2CN(CCc3c([nH]c4ccccc34)[C@@](C(=O)OC)(c3cc4c(cc3OC)N(C=O)[C@H]3[C@@](O)(C(=O)OC)[C@H](OC(C)=O)[C@]5(CC)C=CCN6CC[C@]43[C@@H]65)C2)C1 |  | 2.55 |  | -3.64 | 3.95
CCC1(C)CC(CC(=O)O)(c2ccccc2OC)CCO1 (centres undefined) | 5.46 | 2.5 | 4.19 | 13.4 | 2.29
COc1ccc(CCN2C(=O)c3cc4ccccc4n3CC2(C)C(=O)NC2CCCCC2)cc1OC (centres undefined) | -4.49 | 0 | 5.92 | -20.3 | 2.43
N#Cc1ccc(-c2ccc(S(=O)(=O)Nc3cccc(N)n3)cc2)cc1 | -2.59 | 4.09 | 10 | -21 | -9.83
O=S(=O)(NCc1ccccn1)c1ccc(Br)c2ccccc12 | -4.6 | 5.73 | 4.27 | -19 | -3.49
C=C1CC[C@H]2[C@@](C)(CCC[C@@]2(C)C(=O)O)[C@@H]1CCC(C)CCO (some centres undefined) | -1.15 | -18.5 | -5.15 | -35 | -5.64
CNC(=O)c1cccn2cncc12 | -8.69 | -10.4 | -2.57 | -22.7 | -15
